In all, about 120,000 compounds went through this assay and about 5,300 (4.4%) were called active. This list was built around the results that the source calls inconclusive (neither active nor inactive); the mix of calls is not that of the screen. Calls come from the whole dose curve; as a rule, active = well fitted inhibition curve with a large enough effect; inconclusive = small, poorly fitted or top-dose-only effect; inactive = no such curve, though single readings can be large or run the other way. A potency beside an inconclusive call is a rough fit, not a confirmed value.
assay: qHTS Primary assay for Inhibitors of Plasmodium falciparum Dd2 growth in vitro; note: nearly all actives have a fitted effect of over 65% in size;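 for activity, negative = inhibition: plate controls were DMSO vehicle for no effect and reference drug for full effect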; conditions: P. falciparum Dd2 growth, SYBR Green, 72 h; activity, negative = inhibition: at 28.9 µM (top of the series) unless noted; series mostly up to 28.9 µM
Method in brief: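 Readout: SYBR Green fluorescence, 485 nm excitation, 535 nm emission, after ~16 h lysis at 37C. Before that, Dd2-infected red cells (2.5% hematocrit) grew 72 h with compound, 29 uM top final concentration.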
Potency is the fitted concentration of half-maximal effect; tags give direction and shape of the fitted curve.

Structure (SMILES)	Potency	activity, negative = inhibition
O=C(CCc1nc2ccccc2s1)N1CCC(Cc2noc(C3CCOCC3)n2)C1 (configuration not stated)	inconclusive: 11.2 µM [inhibitor, single point]	–
COC1CCN(C(=O)C2(C)CN(Cc3ccccc3)Cc3ccc(Nc4ccccc4)nc32)CC1 (configuration not stated)	inconclusive: 0.562 µM [inhibitor, full curve, poor fit]	–
Clc1ccc(CN2CCc3nc(N4CCN(c5ccccn5)CC4)ncc3C2)cc1	inactive	–
Cc1cc2c(-c3ccccc3C)nc(-c3c(C)noc3C)cc2[nH]1	inconclusive: 7.94 µM [inhibitor, single point]	–
COC(=O)[C@@H]1Cc2c([nH]c3ccccc23)[C@H]2C[C@@H](NCCCn3ccnc3)C[C@@H](c3ccc(Cl)c(F)c3)N21	active: 3.16 µM	–
O=C(c1ccc(OC2CCN(Cc3c[nH]c4ccccc34)CC2)cc1)N1CCCCC1	inconclusive: 1.58 µM [inhibitor, full curve]	–
O=S(=O)(NC[C@H]1Cn2c(-c3ccc(F)cc3)cnc2CO1)c1ccc(Cl)cc1	inconclusive: 3.16 µM [inhibitor, single point]	–
CCC(C)NC(=O)C1COC2(CCN(C(=O)c3ccc(F)cc3)CC2)N1C(=O)c1ccc(C)cc1 (configuration not stated)	inactive	–
COc1ccccc1Nc1ncncc1-c1nc(-c2ccccc2)no1	inconclusive: 3.98 µM [inhibitor, single point]	–
COCCC(=O)N1CCC2(CC1)C(=O)N(C)c1ccccc12	inactive	–
CCCCN1C(=O)NC(c2ccccc2OC)C2=C1COC2=O (configuration not stated)	inconclusive: 14.1 µM [inhibitor, single point]	–
CCOc1ccc(NC(=O)c2ccc3c(c2)N(C)C2CCCCN2C3=O)cc1 (configuration not stated)	inconclusive: 3.55 µM [inhibitor, single point]	–
CC(=O)Nc1cccc(-c2ccnc(-c3nnc(C)n3CCc3ccccc3)c2)c1	active: 7.94 µM	–
Cc1ccsc1CCNc1cc(C2CC(N)C2)ncn1 (configuration not stated)	inconclusive: 10 µM [inhibitor, single point]	–
Cc1nc(CCNS(=O)(=O)c2cn(C)cn2)no1	inactive	–
CCCN1C(=O)CCc2cc(NC(=O)c3ccc(OC(F)(F)F)cc3)ccc21	inactive	–
CCN(C(=O)Cn1cc(S(=O)(=O)N2CCN(c3ccccc3F)CC2)c2ccccc2c1=O)c1ccc(C)c(C)c1	inconclusive: 17.8 µM [inhibitor, single point]	–
Cc1cc(C(=O)N2c3ccccc3CC2c2nnc(C3CC3)o2)nn1C (configuration not stated)	inactive	–
C=C[C@H]1CN2CC[C@H]1C[C@@H]2CNS(=O)(=O)c1ccc(C)cc1	inconclusive: 0.316 µM [inhibitor, partial curve, poor fit]	–
Cc1nc2c(c(-c3ccc(O)cc3)n1)CN(CC1CC1)CCC2	inconclusive: 10 µM [inhibitor, partial curve, poor fit]	–
CCN(Cc1ccccc1)C(=O)C1CCC(CNS(=O)(=O)c2ccc3c(c2)CCCC(=O)N3)CC1 (configuration not stated)	inconclusive: 17.8 µM [inhibitor, single point]	–
O=C(CCc1nnn2c1CN(C(=O)Nc1ccc3c(c1)OCCO3)CC2)N1CCCC1	inconclusive: 10 µM [inhibitor, single point]	–
CS(=O)(=O)N1CCC(C2CCN(C(=O)c3ccc[nH]c3=O)C2)CC1 (configuration not stated)	inconclusive: 3.98 µM [inhibitor, single point]	–

Structure (SMILES)	Potency	activity, negative = inhibition
CC(=O)N1CCCc2cc(S(=O)(=O)NCc3ccccc3Cl)ccc21	inconclusive: 11.2 µM [inhibitor, partial curve, poor fit]	–
CN1CC2(CCCN(C(=O)c3ccc(OC(F)F)cc3)CC2)OC1=O (configuration not stated)	inactive	–
CCN1CCC(N(Cc2ccc3c(c2)OCO3)C(=O)Nc2cccc(C)c2C)CC1	inactive	–
Cc1ccc2nc(-c3cccc(NC(=O)CSc4ccc(Cl)cc4)c3)oc2c1	active: 11.2 µM	–
COCc1nc(N2CC3C[C@@H]4CC2C[C@H](C3)C4)c2cnn(C)c2n1	inconclusive: 7.94 µM [inhibitor, partial curve, poor fit]	–
COc1ccc(Cl)cc1C(=O)N1CCC2(CC1)NC(=O)N(c1ccccc1Cl)N2	inconclusive: 3.98 µM [inhibitor, partial curve, poor fit]	–
O=C(NCc1ccccc1)C(=O)NCC(c1cccs1)S(=O)(=O)c1cccs1 (configuration not stated)	inactive	–
O=C(CSc1nc2c([nH]c3ccccc32)c(=O)n1-c1cccc(Cl)c1)c1ccccc1	inconclusive: 5.62 µM [inhibitor, single point]	–
CCS(=O)(=O)N1CCC(CC(=O)NCc2ccccc2)C1 (configuration not stated)	inactive	–
O=C(c1ccc(F)c(F)c1)N1CCC2(CC1)NC(=O)N(Cc1ccc(F)cc1)C2=O	inconclusive: 10 µM [inhibitor, partial curve, poor fit]	–
CCOc1ccc(NC(=O)N(Cc2cn(CC)c3ccccc23)C2CCCCCC2)cc1	active: 10 µM	–
O=C(Nc1ccccc1)N[C@H]1CO[C@H]2[C@@H]1OC[C@@H]2n1cc(CC2CCCCC2)nn1	inconclusive: 11.2 µM [inhibitor, partial curve, poor fit]	–
COc1ccc(S(=O)(=O)c2c(Nc3ccc(C)cc3C)sc(C(=O)c3ccc(F)cc3)c2N)cc1	active: 11.2 µM	–
C=CCNC(=O)CCc1c(C)nn(-c2ccccc2)c1Oc1ccc(F)cc1F	inconclusive: 4.47 µM [inhibitor, full curve, poor fit]	–
N#Cc1ccc(CNC2(Cc3cc(COc4ccccc4)on3)COC2)cc1	inconclusive: 31.6 µM [inhibitor, single point]	–
Cc1ccc(N2C(=O)c3n[nH]c(C)c3C2c2ccccc2Cl)cc1 (configuration not stated)	inactive	–
O=C1CS(=O)C2(CCN(S(=O)(=O)Cc3ccccc3F)CC2)N1CC1CC1 (configuration not stated)	inconclusive: 17.8 µM [inhibitor, single point]	–
CCCCn1cc(S(=O)(=O)c2ccc(OC)cc2)c(=O)c2cc(F)c(N3CCOCC3)cc21	active: 11.2 µM	–
COc1ccc(CCNC(=O)CCc2c(C)nc3c4cccnc4nn3c2C)cc1OC	inconclusive: 8.91 µM [inhibitor, partial curve, poor fit]	–
Cc1ncc2c(c1CNC(=O)Cc1ccsc1)CCN(C(=O)Cc1ccc(F)c(F)c1)C2	inactive	–
CN(C)c1nc2c(c(=O)[nH]1)CCN(Cc1ccc(Cl)cc1F)CC2	inconclusive: 0.562 µM [inhibitor, partial curve, poor fit]	–
COc1ccc(NC(=O)c2ncn(-c3ccccc3)n2)cc1Cl	inconclusive: 20 µM [inhibitor, single point]	–
COCc1nc(-c2ccc(OC3CCN(S(=O)(=O)c4ccccc4C)C3)cc2)no1 (configuration not stated)	–	inactive: 20.4% [at 5.79 µM]

Structure (SMILES)	Potency	activity, negative = inhibition
CCc1ccccc1S(=O)(=O)Cc1ccc(C(=O)NCCc2ccc(C)cc2)o1	inconclusive: 17.8 µM [inhibitor, single point]	–
CCC(Sc1nnc2c(n1)[nH]c1ccccc12)C(=O)Nc1ccccc1OC (configuration not stated)	inconclusive: 5.62 µM [inhibitor, partial curve, poor fit]	–
CCc1ccccc1NC(=O)CSc1ncc2c(n1)-c1cc(Cl)ccc1N(Cc1ccccc1)S2(=O)=O	inconclusive: 15.8 µM [inhibitor, single point]	–
Cc1cc(Cl)ccc1NC(=O)N1C[C@@H](F)C[C@H]1C(=O)N1CCc2ccccc2C1	inactive	–
CCc1ccc(C(=O)N2CCC(CC(=O)NCc3ccccc3)C2)cc1 (configuration not stated)	inactive	–
Cn1ccc2c(OCC(=O)Nc3ccc(OC(F)(F)F)cc3)cccc2c1=O	–	inconclusive: -55.9% [inhibitor] [at 5.79 µM]
Cc1nc([C@@H]2CN(C(=O)CCc3nc4ccccc4s3)C[C@H]2C(N)=O)n[nH]1	inactive	–
COc1ccc(-c2nc(-c3nnn4c3COC(c3ccc(C)cc3)C4)no2)c(OC)c1 (configuration not stated)	inconclusive: 2.82 µM [inhibitor, full curve]	–
COc1ccc(-c2ccccc2NC(=O)C2CCCN(Cc3ccc(F)c(F)c3)C2)cc1 (configuration not stated)	inconclusive: 20 µM [inhibitor, partial curve, poor fit]	–
O=c1[nH]c(N2CCc3ccccc3C2)nc2c1CCN(Cc1ccccc1)CC2	–	inactive: 6.96% [at 5.79 µM]
CC(=O)c1cccc(NC(=O)Cn2c(-c3ccc(F)cc3)nc(C)cc2=O)c1	inconclusive: 2.82 µM [inhibitor, single point]	–
COCCN(Cc1ccsc1)Cc1cn[nH]c1-c1ccc(F)cc1	inconclusive: 8.91 µM [inhibitor, partial curve, poor fit]	–
CNC(=O)N1CCOc2ccc(CCC(=O)NCC3CC3)cc2C1	inactive	–
CCCSc1ncc(Cl)c(C(=O)N(Cc2ccccc2)c2ccc(OC)cc2)n1	inconclusive: 10 µM [inhibitor, single point]	–
CCN1CCC(OCCCNC(=O)C2(CCO)CC23CCOCC3)CC1 (configuration not stated)	inconclusive: 1.26 µM [inhibitor, full curve]	–
CC(c1cccs1)N(C)Cc1ccccn1 (configuration not stated)	inactive	–
CCOc1ccccc1C(=O)N1CCC2(CC1)CN(C(C)=O)CC2COC (configuration not stated)	inactive	–
Cc1cc(C(=O)N2CCN(c3cccc(Cl)c3)CC2)c2c(C)nn(-c3ccccc3Cl)c2n1	active: 11.2 µM	–
CN(Cc1ccccc1)C(=O)C[C@@H]1CCNC[C@@H]1Cc1cc(CN2CCCCC2)on1	inconclusive: 14.1 µM [inhibitor, single point]	–
CN1C(=O)C(CC(=O)N2CC(O)C2)(Cc2ccccc2)c2ccccc21 (configuration not stated)	inactive	–
Cc1nc(N2CCC(NC(=O)c3ccc(C#N)cc3)CC2)cc(C(F)(F)F)n1	inconclusive: 3.55 µM [inhibitor, single point]	–

— PubChem BioAssay AID1347417 (National Center for Advancing Translational Sciences (NCATS), 2020)
